Out of some 360,000 compounds screened, about 7,500 (2.1%) were called active. The shares of active, inactive and inconclusive entries below differ from those in the screen. Calls follow the shape of the dose curve; as a rule, active = well fitted cell-killing curve with a large enough effect; inconclusive = small, poorly fitted or top-dose-only effect, or effect the other way, or another doubt; inactive = no such curve, though single readings can be large or run the other way. Potencies of inconclusive entries are left out as doubtful fits.
Test: qHTS for induction of synthetic lethality in tumor cells producing 2HG: qHTS for the HT-1080-IDH1KD cell line;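 as to activity, negative = toxicity: 0% = DMSO wells and -100% = cell-free medium wells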
Details: HT-1080 IDH1 knockdown viability, ATP luminescence, 48 h; activity, negative = toxicity: at 46.1 µM (top of the series) unless noted
Outline: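 After a 2 h attachment period, IDH1KD HT-1080 cells took pin-transferred compound for 48 h at 37 °C; ATP-based luminescence after 10 min room-temperature reagent incubation reported viability.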
With `CN(C)c1ccc(/C=C/C(=O)c2ccc(C(C)(C)C)cc2)cc1[N+](=O)[O-]` the Potency was inconclusive [cytotoxic, single point]. In the case of `Cn1cccc1-c1nc2ccccc2n1Cc1ccccc1`, the Potency is reported as inconclusive [cytotoxic, single point]. With `CCOC(=O)c1c(C)oc2c1c(CN1CCN(CCO)CC1)c(O)c1ccccc12` the Potency was inconclusive [cytotoxic, single point]. With `O=C(Nc1ccccc1)C1C2/C=C\CCCCC21` (stereo not given) the “activity, negative = toxicity” value was inactive: 0.574%. For `CCC1=Nc2cc(C(=O)NCc3ccco3)ccc2Sc2ccc(Cl)cc21`, the Potency was inconclusive [cytotoxic, full curve]. In the case of `Cc1cccc(NC(=O)c2ccc([N+](=O)[O-])o2)c1C`, the Potency is reported as active: 18.4 µM. In the case of `O=C(O)c1ccc2c(c1)C(=O)N(C(Cc1ccc(O)cc1)C(=O)O)C2=O` (stereo not given), the “activity, negative = toxicity” value is reported as inactive: 23.7%. In the case of `CCOC(=O)N1CC=C2C(C#N)=C(N)C(C#N)(C#N)[C@H](c3ccccc3OCC)[C@H]2C1`, the Potency is reported as inconclusive [cytotoxic, single point]. For `Cc1nc2scc(-c3ccco3)c2c(=O)n1/N=C/N(C)C`, the Potency was inconclusive [cytotoxic, single point]. In the case of `CC1(c2ccccc2)NC(=O)N(CC(=O)Nc2ccccc2C(=O)NC2CC2)C1=O` (stereo not given), the “activity, negative = toxicity” value is reported as inactive: -23.3%. In the case of `CC(C)(C)c1ccc(C(=O)Nc2sc3c(c2C(=O)O)CCC3)cc1`, the Potency is reported as inconclusive [cytotoxic, partial curve, poor fit]. In the case of `Cc1nc2cc(NC(=O)Nc3ccc(Br)cc3)ccc2o1`, the Potency is reported as inconclusive [cytotoxic, partial curve, poor fit]. With `CCOC(=O)/C(=C/C=C1\Sc2cc(OCC)c(OCC)cc2N1CC)C(C)=O` the “activity, negative = toxicity” value was inactive: 12.1%. In the case of `FC(F)Oc1ccc(NC(=S)NC23CC4CC(CC(C4)C2)C3)cc1`, the Potency is reported as inconclusive [cytotoxic, single point]. With `CCCOC(=O)C(=O)NNc1ccccc1` the Potency was active: 5.17 µM. With `Cc1cc(C)cc(NC(=O)Cn2nnc(C(=O)NCc3cccs3)c2N)c1` the Potency was inconclusive [cytotoxic, single point]. For `COCC(=O)OCC(=O)N1N=C(c2ccc(Cl)cc2)CC1c1ccco1` (stereo not given), the “activity, negative = toxicity” value was inactive: -3.1%. In the case of `Cc1cc(C)cc(NC(=O)N2CCN(S(C)(=O)=O)CC2)c1`, the Potency is reported as inconclusive [rising, partial curve]. For `Cc1noc(C)c1COc1cccc(C(=O)NCCc2c[nH]c3ccccc23)c1`, the Potency was inconclusive [cytotoxic, partial curve]. With `c1ccc(-n2nnnc2NCCCN2CCOCC2)cc1` the “activity, negative = toxicity” value was inactive: 5.44%. In the case of `Cc1cccc(-c2nc(CN3CCCC(C(=O)NC4CCCCCC4)C3)c(C)o2)c1` (stereo not given), the Potency is reported as inconclusive [cytotoxic, single point]. In the case of `CCC(=O)c1ccc(N2CCN(C(=O)c3ccccc3)CC2)c(F)c1`, the “activity, negative = toxicity” value is reported as inactive: -3.54%. In the case of `COc1ccc(-c2ncnc(C(F)(F)F)c2-c2csc(C)n2)c(O)c1`, the “activity, negative = toxicity” value is reported as inactive: 8.07%. For `CN(CC(=O)Nc1ccc(Cl)cc1)CC(=O)Nc1ccc(F)c(F)c1F`, the Potency was inconclusive [cytotoxic, single point]. In the case of `Cc1cc2cccc(C)c2nc1SCC(=O)NC1CCCCC1`, the Potency is reported as inconclusive [cytotoxic, single point]. For `Cc1ccc(C(=O)NCc2ccc(F)cc2)s1`, the “activity, negative = toxicity” value was inactive: -4.31%. For `COc1ccc(-c2cc(C(F)(F)F)nc(NCc3cccnc3)n2)cc1`, the Potency was inconclusive [cytotoxic, single point]. In the case of `CC(C)=CCc1c(O)cc(O)c2c(=O)c3c(CC=C(C)C)c(O)ccc3oc12`, the Potency is reported as inconclusive [cytotoxic, single point]. In the case of `COc1ccc(-c2nc3c(C)cc(Br)cn3c2CC2CCCCC2)cc1OC`, the Potency is reported as inconclusive [cytotoxic, single point]. With `Cc1ccc2c(c1)S/C(=C\c1cccc[n+]1C)N2CCO` the Potency was active: 16.4 µM. In the case of `COCCNC(=O)c1cccc(Nc2nc(-c3ccccc3)c3cc(Cl)ccc3n2)c1`, the Potency is reported as inconclusive [cytotoxic, single point]. For `O=C(O)c1ccc2c(c1)C(=O)N(c1cccc(C(=O)/C=C/c3ccccc3)c1)C2=O`, the Potency was inconclusive [cytotoxic, single point]. In the case of `O=C(Nc1ccc(Oc2cccnc2)cc1)C1CCN(Cc2cc(Cl)ccc2O)CC1`, the Potency is reported as inconclusive [cytotoxic, single point]. In the case of `c1ccc(-c2cn(-c3ccccc3)c3ncnc(NCCCN4CCOCC4)c23)cc1`, the Potency is reported as inconclusive [cytotoxic, partial curve]. In the case of `COc1cc(NS(=O)(=O)c2ccc(C)cc2)c2ncccc2c1`, the Potency is reported as inconclusive [cytotoxic, partial curve]. With `Cc1cc(C)n2c(SCC(=O)N(CCC#N)c3ccc4c(c3)OCCO4)nnc2n1` the “activity, negative = toxicity” value was inactive: 1.22%. For `CC(C)C[C@H]1CN([C@@H](Cc2ccccc2)CN2CCC[C@@H]2CN2C(=O)C(=O)NC[C@@H]2Cc2ccc(O)cc2)C(=O)C(=O)N1CC1CCCCCC1`, the Potency was inconclusive [cytotoxic, single point]. With `CCOC(=O)c1nnc(-c2ccccc2)nc1Oc1ccccc1Cl` the Potency was inconclusive [cytotoxic, single point]. For `CCOc1cc(-c2c(C#N)c(N)nc3c2CCc2ccccc2-3)ccc1O`, the Potency was inconclusive [cytotoxic, single point]. For `CC(Cc1cccs1)NC(=S)Nc1ccc(Cl)cc1` (stereo not given), the Potency was inconclusive [cytotoxic, single point]. In the case of `C=CCn1c(SCC(=O)NCC2CCCO2)nc2scc(-c3ccccc3)c2c1=O` (stereo not given), the “activity, negative = toxicity” value is reported as inactive: -3.7%. For `Cc1ccc(C(=O)N(CCCN(C)C)c2nc3ccc(Cl)cc3s2)cc1C`, the Potency was active: 23.1 µM. In the case of `O=C(c1ccc(CS(=O)c2ccccc2Cl)o1)N1CCN(c2ccccn2)CC1` (stereo not given), the Potency is reported as active: 7.31 µM. With `O=C(NC1CCCCC1)C(c1ccc2ncccc2c1)N(Cc1ccc2c(c1)OCO2)C(=O)c1cccs1` (stereo not given) the Potency was inconclusive [cytotoxic, partial curve]. With `Cc1ccc(S(=O)(=O)CCC(=O)OCC(=O)NCCc2ccc(F)cc2)cc1` the “activity, negative = toxicity” value was inactive: 1.23%. For `CC(C)n1c(-c2ccco2)csc1=Nc1cccnc1`, the Potency was inconclusive [cytotoxic, single point]. For `Cc1ccc(OCc2cc(C(=O)NC3CCCCC3)no2)cn1`, the Potency was active: 14.6 µM. For `CCN1CCN(c2ccc(NC(=O)c3ccco3)cc2)CC1`, the “activity, negative = toxicity” value was inactive: 2.11%. For `COCCn1c(CNc2ccc(F)cc2)nnc1SCC(=O)Nc1ccc(OC)cc1OC`, the “activity, negative = toxicity” value was inactive: 0.0398%. With `CC(C)(C)C(c1nc2ccccc2[nH]1)n1c(-c2ccsc2)nc2ccccc21` (stereo not given) the Potency was inconclusive [cytotoxic, single point]. For `CCCn1c(SCC(=O)Nc2cccc(S(=O)(=O)N(C)C)c2)nc2ccccc2c1=O`, the Potency was inconclusive [cytotoxic, single point]. With `CC(C)(C)c1ccc(CC(=O)N2CCC2(C)C(=O)NCc2cccc3ccccc23)cc1` (stereo not given) the Potency was active: 16.4 µM. For `O=C(N/N=C/c1ccc(O)c(O)c1)NC12CC3CC(CC(C3)C1)C2`, the Potency was inconclusive [cytotoxic, partial curve]. With `COC(=O)C1=C(C(=O)OC)[C@]2([C@@H]3CCCCN[C@@H](Cc4ccccc4)C(=O)N3Cc3ccccc3)C=C[C@H]1O2` the “activity, negative = toxicity” value was inactive: 4.4%. With `Cc1ccccc1NC(=S)NCc1ccc2c(c1)cc(C)n2C` the Potency was inconclusive [cytotoxic, single point]. For `C=C1C(=O)O[C@@]23[C@H]1CC[C@@H](C)[C@@H]2CC[C@@]1(C)O[C@@H]31`, the activity, negative = toxicity was inconclusive: -30% [cytotoxic]. For `CC1(C)CC2CC(C)(CN2S(=O)(=O)c2ccc(C(=O)Nc3ccc(S(=O)(=O)N4CCOCC4)cc3)cc2)C1` (stereo not given), the Potency was inconclusive [cytotoxic, partial curve]. For `Cc1ccc2c(c1)sc(-c1ccc(N(C)C)cc1)[n+]2C`, the Potency was inconclusive [cytotoxic, partial curve]. For `Cc1csc(-c2nc3ccccc3n2C(C(=O)NC(C)(C)C)c2cc3ccccc3o2)c1` (stereo not given), the Potency was inconclusive [cytotoxic, partial curve]. For `Cc1c(/C=N/n2cnnc2)c2ccccc2n1CCOc1ccccc1`, the Potency was inconclusive [cytotoxic, partial curve]. In the case of `O=C(Nc1ccc(Cl)cc1C(F)(F)F)C(Sc1nnc(-c2cccs2)o1)c1ccccc1` (stereo not given), the Potency is reported as active: 10.3 µM. In the case of `COc1cc(C#Cc2c(-c3ccccc3)n(C)c3ccccc23)cc(OC)c1`, the “activity, negative = toxicity” value is reported as inactive: -0.0948%. In the case of `Cc1ccc(C(=O)N/C(=C/c2ccc(-c3ccc([N+](=O)[O-])cc3)o2)C(=O)NCCCN(C)C)cc1`, the Potency is reported as inconclusive [cytotoxic, single point]. With `O=C(Nc1ccc(NC(=O)c2ccccc2F)cn1)c1ccco1` the “activity, negative = toxicity” value was inactive: -24.4%. With `CCOc1ccc(C(=O)NC(=S)Nc2cccc(S(=O)(=O)NC3=NCCC3)c2)cc1` the Potency was active: 1.03 µM. With `Cc1ccc(C(=O)Nc2ccc(S(=O)(=O)NCc3ccco3)cc2)cc1` the Potency was inconclusive [cytotoxic, single point]. With `O=C(Nc1cccc(S(=O)(=O)N2CCCC2)c1)c1ccc(Cl)nc1` the Potency was active: 6.51 µM. In the case of `COc1cc(-c2nnc(COC(=O)c3ccc([N+](=O)[O-])o3)o2)cc(OC)c1OC`, the “activity, negative = toxicity” value is reported as inactive: -11.4%. In the case of `COc1ccc(NC(=O)CSc2n[nH]c(-c3ccco3)n2)cc1`, the Potency is reported as inconclusive [cytotoxic, single point]. For `CNCCN(C)c1nc(-c2cccs2)nc2ccccc12`, the Potency was inconclusive [cytotoxic, single point].
Potency is read from the fitted curve at half-maximal effect; tags tell the direction and shape of the fitted curve.
